Test results taken from PubChem BioAssay AID686979 (National Center for Advancing Translational Sciences (NCATS), 2013).
Hit rate of the full screen: of about 420,000 compounds, about 50,000 (12%) were called active. The shares of active, inactive and inconclusive entries below differ from those in the screen. The call rests on the fitted dose curve; in most records, active means well fitted inhibition curve with a large enough effect; inconclusive means small, poorly fitted or top-dose-only effect; inactive means flat fitted curve, though single readings scatter. Potencies of inconclusive entries are left out as doubtful fits.

Assay: qHTS for Inhibitors of human tyrosyl-DNA phosphodiesterase 1 (TDP1): qHTS in cells in presence of CPT; further: nearly all actives have a fitted effect of over 55% in size
Settings: chicken DT40 Tdp1-/-;hTDP1 cells + 20 nM CPT, ATP luminescence, 48 h; activity change, negative = growth inhibition: at 46.2 µM (top of the series) unless noted
Procedure, shortened: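 Chicken DT40 Tdp1-/- cells complemented with human TDP1, 400 cells/well, exposed to compounds plus 20 nM camptothecin for at least 48 h at 37 C; viability read as ATP content by CellTiter-Glo luminescence.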
On the % scale 0 is the no-effect control and ±100 the full control effect; potency means the concentration at half of the fitted maximal effect; tags describe the fitted curve by direction and shape.

Row | SMILES | Potency | activity change, negative = growth inhibition
1 | COC(=O)C1=C(c2cc3ccccc3s2)C[C@@H]2CC[C@H]1N2C(=O)NCc1ccco1 | inconclusive [inhibitor, single point] | –
2 | COc1ccc(-n2c(SCCN(C)C)nc3ccccc3c2=O)cc1 | inconclusive [inhibitor, single point] | –
3 | N=c1sc2c(n1Cc1ccccc1)CCCC2 | inconclusive [inhibitor, partial curve] | –
4 | CCN(CC)c1ccc(N=Cc2c(O)n(-c3ccccc3C)c(=O)[nH]c2=O)cc1 | active: 23.1 µM | –
5 | CCOC(=O)C1(c2ccccc2)CCN(CCC(=O)Nc2ccc(OC)cc2)CC1 | inconclusive [inhibitor, single point] | –
6 | CC(=O)c1ccc(N2CCN(S(=O)(=O)c3cc(-c4onc(C)c4C)ccc3C)CC2)cc1 | active: 8.2 µM | –
7 | CC[C@H]1C[C@@H]2C[C@H]3c4[nH]c5ccc(OC)cc5c4CCN(C2)[C@@H]13 | inconclusive [inhibitor, single point] | –
8 | COc1cccc(C(c2nnnn2C(C)(C)C)N2CCC3(CC2)C(=O)NCN3c2ccccc2)c1OC (centres undefined) | inconclusive [inhibitor, single point] | –
9 | CCCCn1c(NS(=O)(=O)c2ccccc2)c(C(=O)OCC)c2nc3ccccc3nc21 | inconclusive [inhibitor, single point] | –
10 | COc1cc2c(cc1OC)CN(c1ccc([N+](=O)[O-])c(C(F)(F)F)c1)CC2 | active: 16.4 µM | –
11 | CCOC(=O)C(O)(c1ccc(N=c2ccccn2C)cc1)C(F)(F)F (centres undefined) | inactive | –
12 | CC(=NCc1ccco1)c1c(O)n(Cc2ccccc2)c(=O)[nH]c1=O | inactive | –
13 | COC(=O)C1=C(c2ccc(OC)c(OC)c2)C[C@@H]2CC[C@H]1N2C(=O)N1CCC(C)CC1 | active: 20.6 µM | –
14 | CN1CCCN(C(=O)COc2ccccc2)CC1 | inactive | –
15 | COc1ccc(-n2c(O)c(C(C)=NCC3CCCO3)c(=O)[nH]c2=O)cc1 (centres undefined) | inactive | –
16 | O=C(CCl)c1ccc(Oc2ccc(C(=O)CCl)cc2)cc1 | inconclusive [inhibitor, single point] | –
17 | ClCCN(CCCl)/C(=C\c1ccccc1)c1ccnc2ccccc12 | active: 5.62 µM | –
18 | O=C(Nc1ccon1)c1cccn(Cc2ccccc2)c1=O | inactive | –
19 | Cc1c(OC(=O)N(C)C)ccc2c1O/C(=C\c1ccco1)C2=O | inconclusive [inhibitor, single point] | –
20 | O=C1NC(=O)N(CC2CCCO2)C(=O)/C1=C/c1cccs1 (centres undefined) | inconclusive [inhibitor, single point] | –
21 | CSCCC(c1nnnn1C(C)(C)C)N1CCC2(CC1)C(=O)NCN2c1ccccc1 (centres undefined) | inconclusive [inhibitor, single point] | –
22 | O=C1CC(N2CC2)C(=O)N1c1ccccc1 (centres undefined) | inactive | –

Row | SMILES | Potency | activity change, negative = growth inhibition
23 | CCOc1ccc(-n2c(O)c(C=NCCN(CC)CC)c(=O)[nH]c2=O)cc1 | inactive | –
24 | O=c1[nH]c(=O)n(CCC2=CCCCC2)c(O)c1C=NCCN1CCNCC1 | inactive | –
25 | Cc1ccc(S(=O)(=O)NCC(=O)OCC(=O)N2N=C(c3ccc(Cl)cc3)CC2c2ccco2)cc1C (centres undefined) | inconclusive [inhibitor, partial curve, poor fit] | –
26 | CCOc1ccc(CCNC(=O)c2ccc(-n3c(C)cc4c3CCCC4)cc2)cc1OCC | active: 11.6 µM | –
27 | Cc1cccc(-n2c(O)c(C=Nc3ccc(Br)cn3)c(=O)[nH]c2=O)c1 | active: 10.3 µM | –
28 | O=C(COC(=O)Cc1ccccc1)Nc1ccc(F)cc1 | inactive | –
29 | CCOC(=O)N1CCN(c2ccc(Cl)c(Cl)c2)CC1 | inconclusive [inhibitor, single point] | –
30 | CCOC(=O)c1c(-n2c(C)cc(/C=C3/C(=O)NC(=O)N(CC)C3=O)c2C)sc2c1CCCC2 | active: 16.4 µM | –
31 | CO[C@@H]1C[C@@H](C[C@H]2CC[C@H](C)[C@@H]([C@@H](C)C(=O)O)O2)O[C@]2(O[C@](C)([C@H]3CC[C@@](C)(C4OC([C@H]5O[C@@](O)(CO)[C@H](C)C[C@@H]5C)C[C@@H]4C)O3)C[C@H]2C)[C@@H]1C (some centres undefined) | active: 0.588 µM | –
32 | O=C(CN1CCCCC1)NCC(=O)Nc1ccc(Br)cc1C(=O)c1ccccc1 | active: 16.4 µM | –
33 | FC(F)(F)c1ccc(-c2ccc3c(c2)CNCc2cnnn2-3)cc1 | inconclusive [inhibitor, single point] | –
34 | COCCNC(=O)Cn1cc(/C=C2\C(=O)NC(=O)N(c3cccc(C)c3C)C2=O)c2ccccc21 | inconclusive [inhibitor, single point] | –
35 | CCn1c(O)c(C(c2ccccn2)c2c(O)n(CC)c(=S)[nH]c2=O)c(=O)[nH]c1=S | inactive | –
36 | O=C(O)c1ccccc1-c1ccc(C=C2C(=O)N(c3ccccc3)C(=S)N(c3ccccc3)C2=O)o1 | inconclusive [inhibitor, single point] | –
37 | O=C(NC(c1ccc(Cl)cc1)P(=O)(Oc1ccccc1)Oc1ccccc1)OCc1ccccc1 (centres undefined) | – | inconclusive: -34.2% [inhibitor]
38 | Cc1ccc(-n2c(O)c(C=Nc3ccccc3N)c(=O)[nH]c2=O)cc1C | inconclusive [inhibitor, partial curve] | –
39 | CC(=O)c1ccc(Oc2ccc(C(=O)c3ccc(C)c(C)c3)cc2[N+](=O)[O-])cc1 | active: 8.2 µM | –
40 | Nc1c(C(=O)Nc2cccc(F)c2)sc2nc(-c3cccs3)ccc12 | inconclusive [inhibitor, single point] | –
41 | O=C(Nc1cccc(F)c1)N1CCCC2(CCN(C(=O)Oc3ccccc3)CC2)C1 | inconclusive [inhibitor, single point] | –
42 | C=CCn1c(O)c(C(CC)=NCCC2=CCCCC2)c(=O)[nH]c1=O | inconclusive [inhibitor, single point] | –
43 | CCCCCn1c(N)c(C(=O)NCCN2CCOCC2)c2nc3ccccc3nc21 | inconclusive [inhibitor, single point] | –
44 | Cc1ccc(-c2nc(CN3C(=O)CN=C(c4ccccc4)c4cc(Cl)ccc43)c(C)o2)cc1 | inconclusive [inhibitor, single point] | –
